Test results: the supplement of paper PMC8728848
The other results are listed elsewhere or left out.

What was measured:
Experiment in all cases: glycan array binding signal (z-score within array); higher = stronger binding
Details in all cases: glycan notation: IUPAC condensed, linker removed
Gal(a1-4)Gal(b1-4)Glc = target: Gal(a1-4)Gal(b1-4)Glc
Procedure, shortened: (§1)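 Glycan array data came from 3228 arrays in the Consortium for Functional Glycomics database, and only arrays with an available protein sequence were kept. Glycan names were put into IUPAC-condensed notation, and columns mapping to the same glycan were averaged. The binding signal is a within-array Z-score, averaged across arrays of one protein sequence run at different concentrations or buffers and across linkers. A negative Z-score can be read as non-binding.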

Gal(a1-4)Gal(b1-4)GlcNAc = target: Gal(a1-4)Gal(b1-4)GlcNAc
Procedure, shortened: as §1

Gal(a1-4)GlcNAc = target: Gal(a1-4)GlcNAc
Procedure, shortened: as §1

Gal(a1-6)Glc = target: Gal(a1-6)Glc
Procedure, shortened: as §1

Gal(b1-2)Gal = target: Gal(b1-2)Gal
Procedure, shortened: as §1

Gal(b1-3)Gal = target: Gal(b1-3)Gal
Procedure, shortened: as §1

Gal(b1-3)GalNAc = target: Gal(b1-3)GalNAc
Procedure, shortened: as §1

[1] = target: Gal(b1-3)GalNAc(b1-3)Gal(a1-4)Gal(b1-4)Glc
Procedure, shortened: as §1

[2] = target: Gal(b1-3)GalNAc(b1-4)Gal(b1-4)Glc
Procedure, shortened: as §1

[3] = target: Gal(b1-3)GalNAc(b1-4)[Neu5Ac(a2-3)]Gal(b1-4)Glc
Procedure, shortened: as §1

Gal(b1-3)GlcNAc = target: Gal(b1-3)GlcNAc
Procedure, shortened: as §1

[4] = target: Gal(b1-3)GlcNAc(b1-3)Gal(b1-4)Glc
Procedure, shortened: as §1

[5] = target: Gal(b1-3)GlcNAc(b1-3)Gal(b1-4)GlcNAc
Procedure, shortened: as §1

[6] = target: Gal(b1-3)[Fuc(a1-4)]GlcNAc
Procedure, shortened: as §1

[7] = target: Gal(b1-3)[Fuc(a1-4)]GlcNAc(b1-3)Gal(b1-4)GlcNAc
Procedure, shortened: as §1

[8] = target: Gal(b1-3)[Fuc(a1-4)]GlcNAc(b1-3)Gal(b1-4)[Fuc(a1-3)]GlcNAc
Procedure, shortened: as §1

[9] = target: Gal(b1-3)[GlcNAc(b1-6)]GalNAc
Procedure, shortened: as §1

[10] = target: Gal(b1-3)[Neu5Ac(a2-6)]GalNAc
Procedure, shortened: as §1

[11] = target: Gal(b1-3)[Neu5Ac(a2-6)]GlcNAc(b1-6)Gal(b1-4)Glc
Procedure, shortened: as §1

[12] = target: Gal(b1-3)[Neu5Ac(b2-6)]GalNAc
Procedure, shortened: as §1

[13] = target: Gal(b1-4)GalNAc(a1-3)[Fuc(a1-2)]Gal(b1-4)GlcNAc
Procedure, shortened: as §1

[14] = target: Gal(b1-4)GalNAc(b1-3)[Fuc(a1-2)]Gal(b1-4)GlcNAc
Procedure, shortened: as §1

Gal(b1-4)Glc = target: Gal(b1-4)Glc
Procedure, shortened: as §1

Gal(b1-4)Glc6S = target: Gal(b1-4)Glc6S
Procedure, shortened: as §1

Gal(b1-4)GlcNAc = target: Gal(b1-4)GlcNAc
Procedure, shortened: as §1

[15] = target: Gal(b1-4)GlcNAc(b1-2)Man(a1-3)[Gal(b1-4)GlcNAc(b1-2)Man(a1-6)]Man(b1-4)GlcNAc(b1-4)GlcNAc
Procedure, shortened: as §1

[16] = target: Gal(b1-4)GlcNAc(b1-3)Gal(b1-4)Glc
Procedure, shortened: as §1

[17] = target: Gal(b1-4)GlcNAc(b1-3)Gal(b1-4)GlcNAc
Procedure, shortened: as §1

[18] = target: Gal(b1-4)GlcNAc(b1-3)Gal(b1-4)GlcNAc(b1-3)Gal(b1-4)GlcNAc
Procedure, shortened: as §1

[19] = target: Gal(b1-4)GlcNAc(b1-3)Gal(b1-4)[Fuc(a1-3)]GlcNAc(b1-3)Gal(b1-4)[Fuc(a1-3)]GlcNAc
Procedure, shortened: as §1

[20] = target: Gal(b1-4)GlcNAc(b1-3)GalNAc
Procedure, shortened: as §1

[21] = target: Gal(b1-4)GlcNAc(b1-3)[Gal(b1-4)GlcNAc(b1-6)]GalNAc
Procedure, shortened: as §1

[22] = target: Gal(b1-4)GlcNAc(b1-6)Gal(b1-4)GlcNAc(b1-6)GalNAc
Procedure, shortened: as §1

[23] = target: Gal(b1-4)GlcNAc(b1-6)GalNAc
Procedure, shortened: as §1

[24] = target: Gal(b1-4)GlcNAc(b1-6)[Gal(b1-3)]GalNAc
Procedure, shortened: as §1

Gal3S(b1-3)GalNAc = target: Gal3S(b1-3)GalNAc
Procedure, shortened: as §1

Gal3S(b1-3)GlcNAc = target: Gal3S(b1-3)GlcNAc
Procedure, shortened: as §1

[25] = target: Gal3S(b1-3)[Fuc(a1-4)]GlcNAc
Procedure, shortened: as §1

Gal3S(b1-4)Glc = target: Gal3S(b1-4)Glc
Procedure, shortened: as §1

Gal3S(b1-4)Glc6S = target: Gal3S(b1-4)Glc6S
Procedure, shortened: as §1

Gal3S(b1-4)GlcNAc = target: Gal3S(b1-4)GlcNAc
Procedure, shortened: as §1

Gal3S(b1-4)GlcNAc6S = target: Gal3S(b1-4)GlcNAc6S
Procedure, shortened: as §1

Gal3S6S(b1-4)GlcNAc = target: Gal3S6S(b1-4)GlcNAc
Procedure, shortened: as §1

Gal3S6S(b1-4)GlcNAc6S = target: Gal3S6S(b1-4)GlcNAc6S
Procedure, shortened: as §1

Gal4S(b1-4)GlcNAc = target: Gal4S(b1-4)GlcNAc
Procedure, shortened: as §1

B1: PMA (Polygonatum multiflorum) (protein)
chain: LLTTTLFVFISSTRSLASTNVLYSDVGNAILNAKESLIYGDYRLDMQSDCNLVLYNKAAPYWASGTRWSWGGNCHLNLQSNGELVMYAYLGRTRIAIWRSGIISATGSYALVLKYDGALHVHGPSLWSTNATGPTTPTTASWSIDSTLWSGDVATIGPTIANGDYKLELLDTCNLTLSNTKTGQVLWYTNTTDWVHDCYVNIEGNGELKIKYLGGATLWSNKVGAGYTNNYVLGLRPDGKLDTYNAPIWSPTIGPGVHVAPAVYNASSNAVAAEGNGEKIAMVTGRAKNST
Question: With B1 as the binder, how does the “glycan array binding signal (z-score)” value (Gal(a1-4)Gal(b1-4)Glc) read?
Answer: Its value is -0.244.

Question: What about the “glycan array binding signal (z-score)” value (Gal(a1-4)Gal(b1-4)GlcNAc) of the same binder?
Answer: Its value is -0.248.

Question: And the “glycan array binding signal (z-score)” value (Gal(a1-4)GlcNAc)?
Answer: Its value is -0.224.

Question: And the “glycan array binding signal (z-score)” value (Gal(a1-6)Glc)?
Answer: The value was -0.256.

Question: And the “glycan array binding signal (z-score)” value (Gal(b1-2)Gal)?
Answer: The value was -0.244.

Question: And the “glycan array binding signal (z-score)” value (Gal(b1-3)Gal)?
Answer: The value was -0.195.

Question: What about the “glycan array binding signal (z-score)” value (Gal(b1-3)GalNAc) of the same binder?
Answer: Its value is -0.252.

Question: And the “glycan array binding signal (z-score)” value [1]?
Answer: Its value is 0.708.

Question: What about the “glycan array binding signal (z-score)” value [2] of the same binder?
Answer: Its value is -0.245.

Question: And the “glycan array binding signal (z-score)” value [3]?
Answer: The value was -0.251.

Question: What about the “glycan array binding signal (z-score)” value (Gal(b1-3)GlcNAc) of the same binder?
Answer: Its value is -0.255.

Question: What about the “glycan array binding signal (z-score)” value [4] of the same binder?
Answer: The value was -0.252.

Question: What about the “glycan array binding signal (z-score)” value [5] of the same binder?
Answer: The value was -0.257.

Question: What about the “glycan array binding signal (z-score)” value [6] of the same binder?
Answer: The value was -0.256.

Question: What about the “glycan array binding signal (z-score)” value [7] of the same binder?
Answer: Its value is -0.257.

Question: What about the “glycan array binding signal (z-score)” value [8] of the same binder?
Answer: The value was -0.251.

Question: What about the “glycan array binding signal (z-score)” value [9] of the same binder?
Answer: The value was -0.235.

Question: And the “glycan array binding signal (z-score)” value [10]?
Answer: The value was -0.25.

Question: What about the “glycan array binding signal (z-score)” value [11] of the same binder?
Answer: The value was -0.259.

Question: What about the “glycan array binding signal (z-score)” value [12] of the same binder?
Answer: Its value is -0.251.

Question: What about the “glycan array binding signal (z-score)” value [13] of the same binder?
Answer: The value was -0.251.

Question: And the “glycan array binding signal (z-score)” value [14]?
Answer: Its value is -0.238.

Question: And the “glycan array binding signal (z-score)” value (Gal(b1-4)Glc)?
Answer: The value was -0.241.

Question: What about the “glycan array binding signal (z-score)” value (Gal(b1-4)Glc6S) of the same binder?
Answer: Its value is -0.246.

Question: And the “glycan array binding signal (z-score)” value (Gal(b1-4)GlcNAc)?
Answer: The value was -0.068.

Question: And the “glycan array binding signal (z-score)” value [15]?
Answer: Its value is 7.37.

Question: What about the “glycan array binding signal (z-score)” value [16] of the same binder?
Answer: Its value is -0.256.

Question: And the “glycan array binding signal (z-score)” value [17]?
Answer: The value was -0.253.

Question: And the “glycan array binding signal (z-score)” value [18]?
Answer: The value was -0.197.

Question: What about the “glycan array binding signal (z-score)” value [19] of the same binder?
Answer: Its value is -0.246.

Question: What about the “glycan array binding signal (z-score)” value [20] of the same binder?
Answer: The value was -0.237.

Question: And the “glycan array binding signal (z-score)” value [21]?
Answer: The value was -0.238.

Question: What about the “glycan array binding signal (z-score)” value [22] of the same binder?
Answer: Its value is -0.205.

Question: What about the “glycan array binding signal (z-score)” value [23] of the same binder?
Answer: Its value is -0.218.

Question: What about the “glycan array binding signal (z-score)” value [24] of the same binder?
Answer: The value was -0.247.

Question: And the “glycan array binding signal (z-score)” value (Gal3S(b1-3)GalNAc)?
Answer: The value was -0.258.

Question: What about the “glycan array binding signal (z-score)” value (Gal3S(b1-3)GlcNAc) of the same binder?
Answer: Its value is -0.25.

Question: And the “glycan array binding signal (z-score)” value [25]?
Answer: The value was -0.243.

Question: What about the “glycan array binding signal (z-score)” value (Gal3S(b1-4)Glc) of the same binder?
Answer: Its value is -0.248.

Question: And the “glycan array binding signal (z-score)” value (Gal3S(b1-4)Glc6S)?
Answer: Its value is -0.243.

Question: And the “glycan array binding signal (z-score)” value (Gal3S(b1-4)GlcNAc)?
Answer: The value was -0.247.

Question: And the “glycan array binding signal (z-score)” value (Gal3S(b1-4)GlcNAc6S)?
Answer: Its value is -0.232.

Question: And the “glycan array binding signal (z-score)” value (Gal3S6S(b1-4)GlcNAc)?
Answer: Its value is -0.252.

Question: And the “glycan array binding signal (z-score)” value (Gal3S6S(b1-4)GlcNAc6S)?
Answer: The value was -0.239.

Question: And the “glycan array binding signal (z-score)” value (Gal4S(b1-4)GlcNAc)?
Answer: Its value is -0.248.
